# Results reported in PMC4336329 (PLoS ONE, 2015).
# The whole screen tested about 310,000 compounds, of which about 14,000 (4.5%) showed an effect of 50% or more. Effects have a minus sign here. The list shows a part of the results.
# Biological target: human ether-à-go-go-related gene (hERG) potassium channel (human, UniProt Q12809)
# Assay: primary screen, population patch clamp on CHO cells stably expressing hERG
# 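Further: peak tail current of the secondary pulse compared with the same well before compound.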
# Chain of human ether-à-go-go-related gene (hERG) potassium channel (Q12809 whole entry, looked up): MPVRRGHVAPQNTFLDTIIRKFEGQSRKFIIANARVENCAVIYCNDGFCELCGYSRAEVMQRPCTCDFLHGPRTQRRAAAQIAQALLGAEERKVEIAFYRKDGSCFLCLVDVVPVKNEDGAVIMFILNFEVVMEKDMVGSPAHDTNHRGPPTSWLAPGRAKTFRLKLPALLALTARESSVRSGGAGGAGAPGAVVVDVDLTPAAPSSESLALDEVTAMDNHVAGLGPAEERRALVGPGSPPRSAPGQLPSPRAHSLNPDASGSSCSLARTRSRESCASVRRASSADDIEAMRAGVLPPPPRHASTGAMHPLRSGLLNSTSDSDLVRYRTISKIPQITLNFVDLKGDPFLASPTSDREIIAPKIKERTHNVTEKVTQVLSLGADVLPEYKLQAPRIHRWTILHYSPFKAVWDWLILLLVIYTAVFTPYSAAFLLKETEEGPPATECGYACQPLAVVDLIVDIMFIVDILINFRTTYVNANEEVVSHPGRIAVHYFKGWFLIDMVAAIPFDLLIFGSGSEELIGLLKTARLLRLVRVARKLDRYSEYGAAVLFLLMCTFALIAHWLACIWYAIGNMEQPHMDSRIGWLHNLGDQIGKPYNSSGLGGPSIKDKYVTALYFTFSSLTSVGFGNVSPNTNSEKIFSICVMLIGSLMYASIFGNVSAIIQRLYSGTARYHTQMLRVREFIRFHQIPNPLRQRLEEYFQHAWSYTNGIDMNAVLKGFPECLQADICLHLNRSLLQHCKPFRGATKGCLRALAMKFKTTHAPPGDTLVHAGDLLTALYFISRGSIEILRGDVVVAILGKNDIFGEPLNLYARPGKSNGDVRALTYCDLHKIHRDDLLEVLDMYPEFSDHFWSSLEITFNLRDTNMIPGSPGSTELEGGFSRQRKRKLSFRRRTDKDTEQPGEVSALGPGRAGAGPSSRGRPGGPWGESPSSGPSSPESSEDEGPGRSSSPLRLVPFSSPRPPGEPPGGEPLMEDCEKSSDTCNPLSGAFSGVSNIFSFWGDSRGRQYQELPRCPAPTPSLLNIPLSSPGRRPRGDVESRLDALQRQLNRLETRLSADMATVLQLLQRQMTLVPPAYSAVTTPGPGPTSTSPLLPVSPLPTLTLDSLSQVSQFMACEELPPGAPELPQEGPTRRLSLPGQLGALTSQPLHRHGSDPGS
row,SMILES,"hERG current change (%, negative = inhibition) at 10uM"
1,COc1ccc(C(=O)Nn2c(C)nc3ccccc3c2=O)c(OC)c1,-21.9%
2,CCOC(=O)c1ccc(NC(=O)COc2coc(CN3CCc4ccccc43)cc2=O)cc1,4.35%
3,CC(=O)Nc1ccc(S(=O)(=O)NC2=NCN(c3ccc([N+](=O)[O-])cc3)CN2)cc1,27.5%
4,Cc1ccccc1NS(=O)(=O)c1ccc2oc(=O)ccc2c1,6.07%
5,O=C(COc1ccc2c3c(c(=O)oc2c1)CCC3)N[C@@H](CSCc1ccccc1)C(=O)O,7.39%
6,[O-][n+]1c2c(nc3c1-c1ccccc1C3O)CCCC2 (stereo not drawn),-2.12%
7,COc1cc(C(=O)Nc2cccc(-n3cnnn3)c2)cc(Cl)c1OC,-5.07%
8,Nn1c(COc2ccc(Cl)cc2)nc2ccccc2c1=O,-34.8%
9,COCCOCCn1cnc2ccccc21,14.9%
10,CCc1ccc(/C(C)=N\Nc2ccc([N+](=O)[O-])cc2)cc1,-8.23%
11,CCS(=O)(=O)c1ncc(Cl)c(C(=O)Nc2ccccc2OC)n1,21.9%
12,CC(=O)Oc1ccc(C(=O)Nc2cccc(-c3nnc(-c4ccco4)o3)c2)cc1,0.775%
13,O=c1c2ccccc2nc2ccc(NCc3cccs3)nn12,-18.9%
14,COc1ccc(/C=C2/C(=N)N3N=C(CC(=O)N4CCCC4)SC3=NC2=O)cc1OC,23.2%
15,COc1cccc(-c2csc(N3CCN(C(=O)C4CCCCC4)CC3)n2)c1,-6.39%
16,O=C1C(Cl)=C(N2CCCCCC2)C(=O)N1c1ccc(Br)cc1,1.35%
17,Cc1cc(C(=O)O)ccc1-n1c(C)cc(/C=C(/C#N)C(=O)Nc2ccccc2)c1C,15.1%
18,COc1ccc(C2C(C(C)=O)=C(O)C(=O)N2c2ccc(Br)cn2)cc1 (stereo not drawn),-18.4%
19,CCCCNC(=O)/C(=C/c1ccco1)NC(=O)c1ccco1,11.9%
20,CCOc1ccc(-n2c(C)c(C(=O)OC)c3cc(O)ccc32)cc1,1.58%
21,COC(=O)c1cc(N=Nc2c(C)[nH]c3ccccc23)cc(C(=O)OC)c1,17.4%
22,CCOc1ccccc1CN1CCNC(=O)C1CC(=O)NCc1cc(C)n(C)n1 (stereo not drawn),18.8%
23,CCCCNC(=O)CCC(=O)Nc1ccc2nc(N3CCOCC3)cc(C)c2c1,-3.09%
24,O=C1c2ccccc2C(=O)C1c1nccc2ccccc12,19.2%
25,CCOc1ccc(S(=O)(=O)N2CCCC(C(=O)NCc3ccco3)C2)cc1 (stereo not drawn),-4.45%
26,COc1ccc(/C(O)=C2/C(=O)C(=O)N(CCCN3CCOCC3)C2c2ccc(N(C)C)cc2)cc1 (stereo not drawn),9.34%
27,COc1nc(C)nc(NC(=O)NS(=O)(=O)c2ccccc2Cl)n1,9.96%

row,SMILES,"hERG current change (%, negative = inhibition) at 10uM"
1,Cc1ccc(-c2nc3ccccc3o2)cc1NC(=S)NC(=O)c1cc2ccccc2o1,4.08%
2,CSc1ccccc1NC(=O)COC(=O)Cn1cc(C(F)(F)F)ccc1=O,4.23%
3,CN(C)S(=O)(=O)c1cccc(NC(=S)N(CCC#N)Cc2cccnc2)c1,-7.37%
4,O=C(/C=C/c1ccco1)N(Cc1cccc(Br)c1)C1CCS(=O)(=O)C1 (stereo not drawn),-46.3%
5,CC(c1ccccc1)N1C(=O)c2cccnc2C1=O (stereo not drawn),15.6%
6,COCC(=O)Nc1nnc(-c2ccc(C(C)(C)C)cc2)s1,-19.2%
7,CCCCN1CC(O)=C(c2nc(-c3ccc(Br)cc3)cs2)C1=N,4.74%
8,Cc1cccc(C(=O)NC(C(=O)Nc2nc(-c3ccccn3)cs2)C(C)C)c1 (stereo not drawn),23.5%
9,CCOC(=O)c1nn(-c2cccc(OC)c2)c2nc(Nc3ccccc3)cc(=O)n12,-5.64%
10,CN1C(C(=O)NCc2ccccc2)CC2Cn3c(nc4ccccc43)C21 (stereo not drawn),-0.69%
11,O=C(NS(=O)(=O)Nc1ccc(Cl)cc1)c1c[nH]c2ccccc12,23.2%
12,C=CCc1c(C)nc(SC)nc1Nc1ccc(C)cc1,-14.3%
13,CCOC(=O)c1c(SCC(=O)Nc2nc(C)cs2)nc(=O)[nH]c1C,13.3%
14,O=C(CN1CCN(C/C=C/c2ccccc2)CC1)Nc1ccccc1C(=O)NC1CC1,-80.5%
15,COc1cccc(NC(=O)NCc2c(-c3ccccc3)noc2C)c1,-15.7%
16,O=C(Nc1nccs1)c1cccc(N2C(=O)C3C4C=CC(C4)C3C2=O)c1 (stereo not drawn),-28.9%
17,CN(CCOc1cccc(C(F)(F)F)c1)Cc1ccccc1.O=C(O)C(=O)O,-5.64%
18,CSc1ccccc1C(=O)Nc1ccc2c(c1)OCCO2,2.01%
19,COc1ccc(-c2cccc(NS(=O)(=O)c3cc([N+](=O)[O-])c(C)c([N+](=O)[O-])c3)c2)nn1,-29.6%
20,COc1cc(CC(=O)Nc2ncc(C)s2)cc(OC)c1OC,19.2%
21,CCOC(=O)c1cc2c(ccn2C)n1CC(=O)N1CCN(c2ccccc2)CC1,-5.78%
22,COc1cc(C2NC(=O)NC(c3ccccc3)=C2C(C)=O)cc([N+](=O)[O-])c1O (stereo not drawn),8.89%
23,COc1ccc(CCNC(=O)C2CCC(=O)N(CCc3ccc(OC)cc3)C2)cc1 (stereo not drawn),-18.3%
24,O=C(O)c1ccc2c(=O)n3c(nc2c1)/C(=C/c1ccc(Cl)c([N+](=O)[O-])c1)CC3,21.3%
25,O=[N+]([O-])c1cc(C(F)(F)F)ccc1NC1CCN(Cc2ccccc2)C1 (stereo not drawn),-66.6%
26,CCCOC(=O)CN1C(=O)c2ccccc2C1=O,10.4%
27,O=C(NNC(=O)C1CCCN(S(=O)(=O)c2cccc(F)c2)C1)C1CC1 (stereo not drawn),49.8%
